In all, about 310,000 compounds went through this assay and about 14,000 (4.5%) showed an effect of 50% or more. Effects have a minus sign here. Some of the results follow.
Target: human ether-à-go-go-related gene (hERG) potassium channel (human, UniProt Q12809)
Experiment: primary screen, population patch clamp on CHO cells stably expressing hERG
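Also: peak tail current of the secondary pulse compared with the same well before compound.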

Chain of human ether-à-go-go-related gene (hERG) potassium channel (Q12809 whole entry, looked up): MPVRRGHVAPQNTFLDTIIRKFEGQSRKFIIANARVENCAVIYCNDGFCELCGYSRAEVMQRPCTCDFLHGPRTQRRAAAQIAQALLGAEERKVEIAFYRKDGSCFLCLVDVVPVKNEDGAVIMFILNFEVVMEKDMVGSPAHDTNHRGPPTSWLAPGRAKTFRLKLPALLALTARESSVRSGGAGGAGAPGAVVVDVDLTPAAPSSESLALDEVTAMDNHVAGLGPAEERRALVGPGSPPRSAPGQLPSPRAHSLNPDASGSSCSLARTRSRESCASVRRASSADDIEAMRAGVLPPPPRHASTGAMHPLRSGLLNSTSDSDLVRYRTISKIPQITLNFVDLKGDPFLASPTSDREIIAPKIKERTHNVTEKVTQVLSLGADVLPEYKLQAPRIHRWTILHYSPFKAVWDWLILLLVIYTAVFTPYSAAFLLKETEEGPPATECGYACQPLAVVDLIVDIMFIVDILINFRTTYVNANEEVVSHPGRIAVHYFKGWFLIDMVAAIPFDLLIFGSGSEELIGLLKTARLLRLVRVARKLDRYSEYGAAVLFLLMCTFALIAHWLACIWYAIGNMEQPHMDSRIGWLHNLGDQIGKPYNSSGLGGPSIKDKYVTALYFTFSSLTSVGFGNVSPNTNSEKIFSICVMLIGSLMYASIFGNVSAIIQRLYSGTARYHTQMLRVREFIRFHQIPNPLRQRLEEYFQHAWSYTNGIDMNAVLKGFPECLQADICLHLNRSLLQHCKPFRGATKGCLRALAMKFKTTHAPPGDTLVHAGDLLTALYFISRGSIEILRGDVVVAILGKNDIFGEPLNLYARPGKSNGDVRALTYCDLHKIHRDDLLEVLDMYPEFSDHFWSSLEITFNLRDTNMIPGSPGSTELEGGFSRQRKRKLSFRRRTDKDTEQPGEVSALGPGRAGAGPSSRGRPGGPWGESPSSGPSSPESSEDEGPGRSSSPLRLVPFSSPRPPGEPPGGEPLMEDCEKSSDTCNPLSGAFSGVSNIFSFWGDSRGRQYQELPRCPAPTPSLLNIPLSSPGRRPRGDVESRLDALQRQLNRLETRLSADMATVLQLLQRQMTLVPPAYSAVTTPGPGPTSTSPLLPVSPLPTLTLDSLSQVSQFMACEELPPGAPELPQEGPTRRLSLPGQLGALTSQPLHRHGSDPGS

Row | Compound | hERG current change (%, negative = inhibition) at 10uM
1 | Cc1cc(C)cc(NC(=O)CCCCCN2C(=O)[C@@H]3Cc4ccccc4CN3C2=O)c1 | -51.9%
2 | CC1CCN(CCCNC(=O)c2ccc(CS(=O)(=O)Cc3ccc(Cl)cc3)o2)CC1 | -44%
3 | O=C1COc2ccc(S(=O)(=O)N3CCCCC3)cc2N1 | 20%
4 | CCc1cc(C(=O)COc2ccccc2F)c(O)cc1O | -1.35%
5 | COCCCn1c(SCC(=O)O)nc2cc(OC)c(OC)cc2c1=N | 9.07%
6 | C=C(C)c1cccc(C(C)(C)NC(=O)Nc2cc(C)ccn2)c1 | 6.07%
7 | O=c1c2ccccc2ncn1-c1ccc(Cl)cc1 | 10.6%
8 | NC(N)=N/N=C/c1ccc(OCc2ccccc2)c(OCc2ccccc2)c1 | -38.9%
9 | CCCCCNC(=O)CCCCn1c(=O)[nH]c2cc(OCC)c(OCC)cc2c1=O | -0.175%
10 | O=C(COC(=O)c1ccccc1-c1nc2ccccc2s1)NC1CCS(=O)(=O)C1 (centres unmarked) | -1.07%
11 | CC(O)C(=O)NCCOCCOCCNC(=O)C(C)O (centres unmarked) | 6.33%
12 | CCOC(=O)N1CCN(C(=O)CNC(=O)c2ccc(Cl)cc2)CC1 | 3.58%
13 | COC(=O)c1ccc(C2C(C(=O)Nc3ccccc3C)=C(C)Nc3ncnn32)cc1 (centres unmarked) | -1.32%
14 | O=C(Cn1c(=O)oc2ccccc21)N1CCCCC1 | 0.141%
15 | O=C1NCCN1CCN1C(=O)c2ccccc2NC1c1ccccc1 (centres unmarked) | -10.8%
16 | Cc1ccc(OCC(=O)NC(=S)Nc2cccc(NC(=O)c3ccccc3)c2)cc1 | 0.949%
17 | O=C(COc1ccc(Cl)cc1Br)NC1CC1 | -9.5%
18 | CN(C)/C=C1/C(=O)Nc2ccccc21 | -8.07%
19 | CCOC(=O)c1c(-c2ccccc2)oc2ccc(OCC(=O)NN)cc12 | 3.85%
20 | COc1cccc(-c2nnc(SCN3C(=O)c4ccccc4C3=O)n2C)c1 | -18.5%
21 | COc1cc(NS(=O)(=O)c2ccc(NC(=O)COc3ccc(C)cc3)cc2)nc(OC)n1 | 10.1%
22 | c1nnc2c3c4c(sc3ncn12)CCC4 | -2.87%

Row | Compound | hERG current change (%, negative = inhibition) at 10uM
23 | COc1ccccc1NS(=O)(=O)c1cccc(NC(=O)C2CC2)c1 | -15.5%
24 | COc1ccccc1NC(=O)Nc1ccc(F)c(F)c1 | 18.4%
25 | COc1ccc(CC(=O)Nc2cc(=O)n(C)c(=O)n2C)cc1 | 11.2%
26 | CCOC(=O)/C(=N\Nc1ccc(C(C)=O)cc1)c1csc(Nc2ccccc2)n1 | 5.53%
27 | Cc1ccc(-c2nc(CS(=O)(=O)CC(=O)NCCCN3CCOCC3)c(C)o2)cc1 | 11.5%
28 | O=C(NCc1ccc(Cl)cc1)C1C2C=CC3(CN(Cc4cccnc4)C(=O)C13)O2 (centres unmarked) | -7.1%
29 | CCCc1cc(C(=O)Nc2ccc(CC)cc2)no1 | 0.086%
30 | COC(=O)C(O)(CC(=O)Nc1ccc(OC(F)(F)F)cc1)C(F)(F)F (centres unmarked) | 13.1%
31 | CC(=O)c1cccc(OCC(=O)Nc2cccc(C(=O)Nc3c(C)n(C)n(-c4ccccc4)c3=O)c2)c1 | -7.78%
32 | COC(=O)/C=C/c1ccsc1NC(C)=O | 13.6%
33 | Cc1ccsc1C(=O)NNC(=O)c1cccc(S(=O)(=O)N2CCCC2)c1 | 4.72%
34 | O=[N+]([O-])c1cc(S(=O)(=O)N2CCCC2)ccc1N/N=C/c1ccccn1 | 39.8%
35 | O=C(NC1CCCCCC1)c1ccc(S(=O)(=O)NCc2ccco2)cc1 | 2.7%
36 | FC(F)Oc1ccc(/C=N/c2c(-c3ccc(OC(F)F)cc3)nc3n2CCS3)cc1 | 30%
37 | O=S(=O)(c1ccc(SCCO)nc1)N1CCCC1 | 7.44%
38 | COC(=O)[C@@]1(Cc2ccccc2)[C@@H]2C(=CC(=O)[C@H]2CC(=O)C(=O)N(C)C)CN1C(=O)c1ccccc1 | -0.867%
39 | CN(C)S(=O)(=O)c1cccc(NC(=O)COC(=O)CCc2nc3ccccc3s2)c1 | -16.7%
40 | COc1ccc(Nc2nc(-c3cccs3)nc3ccccc23)cc1 | 6.04%
41 | CCCc1cc2c(=O)c(-c3ccc4c(c3)OCCO4)coc2cc1OC(=O)c1ccco1 | -0.664%
42 | CC1CC(=O)N(CC(=O)Nc2ccc3c(c2)OCCO3)c2ccccc2S1 (centres unmarked) | -17.1%
43 | CCNC(=S)Nc1sc2c(c1C#N)CCC(C)C2 (centres unmarked) | 17.8%
44 | COc1ccc(OC)c(/C=N/NC(=O)c2cc3c(OC)c(OC)ccc3[nH]2)c1 | 1.91%

From PMC4336329 (PLoS ONE, 2015)
